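Grown in 96-well plates, cells were treated for 48 hours with each compound at five concentrations. Insufficient inhibition: endpoint recorded as highest concentration tested. GI50: concentration for 50% inhibition of growth. At the TGI there is no net growth.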
Test system: NCI-H322M lung
Assay: NCI tumour cell line growth inhibition, 48 h

SMILES	TGI [µM]	GI50 [µM]
COC(=O)[C@@H]1c2cc3c(c(O)c2[C@@H](OC)C[C@@]1(C)O)C(=O)c1c(O)cc2c(c1C3=O)OC1O[C@@]2(C)[C@H](O)[C@@H](N(C)C)[C@@H]1O	2.24	
COc1cc2c3c(n(CCCN4CCN(C)CC4)c(=O)c2cc1OC)-c1cc2c(cc1C3=O)OCO2	33.4	15.6
O=[N+]([O-])CC(SCc1ccccc1)c1ccc2c(c1)OCO2 (stereo unspecified)	33.1	
COc1cc2c3c(n(CCCN)c(=O)c2cc1OC)-c1ccc(F)cc1C3=O	21.1	7.65
CC1=C/C(=N/N2C(=O)/C(=C/c3ccc(Cl)cc3)N=C2c2ccccc2)CC(C)(C)C1	> 100	
CC1=C(C2=C(C)C(=O)C(=O)c3cc(C)ccc32)c2ccc(C)cc2C(=O)C1=O	3.22	
CC(=O)NNc1nc(C)c(C(/C=C/c2ccc(Cl)cc2)=N\NS(=O)(=O)c2ccc(C)cc2)s1	> 100	
C=C(C)C1Cc2c(cc(O)c3c(=O)c4ccccc4n(C)c23)O1 (stereo unspecified)	> 100	
CCOC(OCC)C(CC)[Se]c1ccccc1[N+](=O)[O-] (stereo unspecified)	> 30.3	

Reference: PubChem BioAssay (NCI)
